Laboratory results from the supplement of paper PMC4166925.
± gives the standard deviation of the averaged measurements. The full ranking holds about 33,000 sequences; the median of “E-score (dimensionless, -0.5 to 0.5)” is about -0.049, and the highest 2% start at about 0.37. The list shows a part of the results.

Test system: T1, PmTbr T-box DNA-binding domain (GST fusion)
T1 sequence: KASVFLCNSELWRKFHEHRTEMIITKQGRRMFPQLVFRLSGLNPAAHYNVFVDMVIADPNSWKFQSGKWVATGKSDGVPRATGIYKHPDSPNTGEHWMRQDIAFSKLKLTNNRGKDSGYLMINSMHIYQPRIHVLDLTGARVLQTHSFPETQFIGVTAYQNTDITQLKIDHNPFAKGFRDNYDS
Experiment: PBM E-score of 8-mer (E-score (dimensionless, -0.5 to 0.5)); Tbr is Tbrain of the sea star Patiria miniata (Pm) or the sea urchin Strongylocentrotus purpuratus (Sp); higher = stronger binding preference; most listed sequences are background and not binding sites
Conditions: the construct has about 5 more residues each side
Summary of the method: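 Each ungapped 8-mer received an enrichment E-score from the Universal PBM Analysis Suite, averaged over duplicate arrays. The proteins were Tbr T-box DNA-binding domains, covering the whole T-box plus about five flanking residues, fused to GST and expressed in BL21 E. coli at 20 °C before glutathione affinity purification. Universal Agilent oligonucleotide arrays were made double-stranded by primer extension and incubated with 200 nM protein in PBS (pH 7.5). The arrays were then scanned and quantified, and every 8-mer was scored from probe intensities.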

Row | Sequence | PBM E-score of 8-mer
1 | CCGAACTC | -0.178 ± 0.06
2 | AGTGCAGG | -0.143 ± 0.038
3 | AGATACCA | -0.199 ± 0.12
4 | CCATGTAA | -0.0283 ± 0.12
5 | AGCGGAAA | -0.0011 ± 0.022
6 | ACTCTCAT | -0.00605 ± 0.049
7 | ATACCTTA | 0.0857 ± 0.093
8 | TAAGGCAA | -0.00958 ± 0.091
9 | AGTGTTAG | 0.407 ± 0.014
10 | TCAGGCCA | -0.242 ± 0.011
11 | CCACGGCA | -0.00996 ± 0.0087
12 | AGTCATTG | -0.17 ± 0.052
13 | CTCCAGGC | -0.212 ± 0.045
14 | CTTGCGGC | -0.0279 ± 0.059
15 | AATCCCGG | -0.136 ± 0.02
16 | GGCAGCAA | 0.0182 ± 0.0089
17 | GCGAACGA | 0.243 ± 0.031
18 | CTTCTGCA | -0.0259 ± 0.082
19 | ACACCCTC | 0.429 ± 0.0062
20 | ATGCGACA | 0.3323 ± 0.0011
21 | GGCCGGCC | -0.0533 ± 0.00084
22 | ACAATTTA | -0.0673 ± 0.027
23 | AACGCACG | 0.0465 ± 0.039

Row | Sequence | PBM E-score of 8-mer
24 | TCACACAA | 0.414 ± 0.015
25 | GAATCTGA | -0.0454 ± 0.055
26 | ACGTCCGA | -0.132 ± 0.0042
27 | AGTCTTAC | -0.0984 ± 0.0076
28 | AGCTTGCA | -0.0385 ± 0.069
29 | AAGTTTGA | -0.0349 ± 0.063
30 | CACGAGCC | 0.0885 ± 0.03
31 | AATCGTGT | 0.217 ± 0.036
32 | AAGATGTC | 0.0599 ± 0.045
33 | CTTTCCAA | -0.318 ± 0.022
34 | AAGCACAT | 0.00968 ± 0.019
35 | AACTCGGA | -0.14 ± 0.011
36 | AGACGTCA | -0.0228 ± 0.0035
37 | CATGGTGG | 0.0716 ± 0.00076
38 | GCAGACCC | -0.0793 ± 0.046
39 | CGTATTCC | -0.23 ± 0.036
40 | CGGCAGCC | -0.13 ± 0.034
41 | AATCTTAC | -0.185 ± 0.01
42 | AGTCCATA | -0.27 ± 0.031
43 | GATCCGAC | -0.0863 ± 0.057
44 | ACTCGGCT | -0.061 ± 0.032
45 | AAGTAGGG | -0.216 ± 0.013
46 | CAACCTAC | 0.16 ± 0.015

Row | Sequence | PBM E-score of 8-mer
47 | AGGGCCGG | -0.188 ± 0.027
48 | AACTGGGC | -0.0959 ± 0.1
49 | AACTTTTC | 0.117 ± 0.047
50 | GGGACGCA | -0.112 ± 0.0018
51 | AACATCCC | -0.117 ± 0.047
52 | CAGTATTA | -0.0935 ± 0.092
53 | ACGAGAAT | 0.0844 ± 0.012
54 | CGCACTAG | 0.167 ± 0.021
55 | CTATCCCC | -0.15 ± 0.059
56 | AATTGACC | -0.208 ± 0.049
57 | CAGGACGA | -0.13 ± 0.02
58 | AGGTTCCC | -0.269 ± 0.027
59 | CGCTCTAG | 0.124 ± 0.066
60 | AAACTGCA | -0.152 ± 0.048
61 | ACCGGAAG | 0.0984 ± 0.051
62 | AGAGCTAT | -0.0757 ± 0.054
63 | GTCTACAC | 0.286 ± 0.043
64 | CCTACTGC | -0.0677 ± 0.056
65 | CATCCCTA | -0.227 ± 0.0076
66 | AACTAACA | 0.265 ± 0.033
67 | GTCAGTAA | -0.0125 ± 0.075
68 | AATATCCG | -0.2324 ± 0.00027
69 | AGTAACCA | -0.00474 ± 0.00078

Row | Sequence | PBM E-score of 8-mer
70 | AACCACTC | -0.0948 ± 0.038
71 | AAGCATCT | -0.112 ± 0.053
72 | CGAGCGAC | 0.111 ± 0.021
73 | CCCTATCA | -0.00244 ± 0.085
74 | ACAATTGT | 0.186 ± 0.032
75 | ACCTATGA | -0.00105 ± 0.083
76 | CCCCTCAA | -0.0994 ± 0.049
77 | GGGCTTAC | -0.109 ± 0.037
78 | AAGGTGTG | 0.4811 ± 0.0016
79 | CTACGTCC | -0.131 ± 0.094
80 | GTACCCCA | -0.22 ± 0.027
81 | ACAGGGCT | -0.243 ± 0.0088
82 | ACATTACC | -0.144 ± 0.023
83 | ATTTAAGA | -0.165 ± 0.058
84 | ACGTAGCC | -0.223 ± 0.051
85 | ATTAGCCA | -0.102 ± 0.033
86 | GTCTATCA | -0.0452 ± 0.061
87 | CCGGGGAC | -0.19 ± 0.084
88 | ACATGATA | -0.00038 ± 0.028
89 | ACAGGAAA | 0.0152 ± 0.054
90 | ACCTCGAA | 0.197 ± 0.023
91 | GCTGTTCA | 0.0254 ± 0.024
92 | ACAGAATA | -0.305 ± 0.0032

Row | Sequence | PBM E-score of 8-mer
93 | GAATACAC | 0.0212 ± 0.11
94 | TAGGACAA | -0.135 ± 0.06
95 | GCAAGTGA | 0.3016 ± 0.003
96 | AGGTTACA | -0.0341 ± 0.0097
97 | CCCGTGGC | -0.00684 ± 0.023
98 | AATCCAAA | 0.0643 ± 0.04
99 | GCCACCTA | 0.336 ± 0.033
100 | GTGCAGCA | -0.164 ± 0.039
101 | CATGGGCA | -0.0349 ± 0.041
102 | AATTCACG | 0.365 ± 0.0071
103 | CCAAGTGC | 0.291 ± 0.032
104 | GACCCGGA | -0.0679 ± 0.07
105 | GACATGGC | -0.24 ± 0.08
106 | CATACCCG | -0.0273 ± 0.091
107 | ACACGCCC | 0.145 ± 0.041
108 | GGAATCAA | -0.0556 ± 0.03
109 | GAGTACAA | -0.0531 ± 0.051
110 | ATAGTGAA | 0.0433 ± 0.046
111 | CGGACAAC | -0.106 ± 0.065
112 | CCCGAGCA | -0.168 ± 0.032
113 | CACATGAC | 0.194 ± 0.061
114 | AATAATGT | -0.106 ± 0.067
115 | CGAACGGA | -0.0168 ± 0.028

Row | Sequence | PBM E-score of 8-mer
116 | ACAAACAT | 0.064 ± 0.042
117 | AAAAGCTG | 0.0974 ± 0.097
118 | CCAGAGTC | -0.196 ± 0.0072
119 | GTAACGCA | 0.103 ± 0.06
120 | ATGTCTTA | -0.111 ± 0.1
121 | CCAGCTAA | -0.0644 ± 0.011
122 | ATTCAGTA | -0.258 ± 0.061
123 | ACACGGGT | 0.158 ± 0.045
124 | ACCTACAC | 0.128 ± 0.078
125 | GACCGGCA | 0.0892 ± 0.02
126 | GTGATGAA | 0.268 ± 0.0068
127 | TCCCAAGA | -0.0329 ± 0.012
128 | GTAATGCA | -0.254 ± 0.07
129 | AGCGGTGC | 0.045 ± 0.057
130 | GATATTAC | -0.154 ± 0.026
131 | CGCGTTTC | 0.00403 ± 0.032
132 | CATGCAGA | -0.208 ± 0.025
133 | AATCGTAT | -0.15 ± 0.07
134 | CTAGGCTA | -0.0349 ± 0.0095
135 | AGCGGCAC | 0.168 ± 0.017
136 | AGGTGTAG | 0.408 ± 0.0046
137 | AAATATTC | -0.205 ± 0.012
138 | GGGTAACC | -0.125 ± 0.075

Row | Sequence | PBM E-score of 8-mer
139 | CGAGTAAA | -0.0766 ± 0.038
140 | GTCTGGGA | -0.171 ± 0.033
141 | AAATAGAA | -0.144 ± 0.045
142 | CCCTTGGC | 0.0967 ± 0.0044
143 | GGCACTAC | -0.0196 ± 0.072
144 | CGATTTAG | -0.0692 ± 0.0091
145 | GCGCTAAA | 0.394 ± 0.012
146 | GTTCGTTA | 0.0349 ± 0.023
147 | AAGTCGGT | 0.06 ± 0.002
148 | CGGTTGAG | -0.149 ± 0.036
149 | ACTATTCC | -0.0748 ± 0.068
150 | ATGTGCGG | 0.0803 ± 0.028
151 | GGTACTGA | -0.195 ± 0.048
152 | GAGTCGCC | 0.00916 ± 0.036
153 | ACCTTGCC | 0.00429 ± 0.0073
154 | ACGCCAAC | 0.137 ± 0.033
155 | GGCCGAGA | 0.0414 ± 0.00058
156 | TGCTGGAA | -0.261 ± 0.065
157 | GGCGTTGA | 0.313 ± 0.015
158 | CAACACAG | 0.143 ± 0.018
159 | GTTACTGA | -0.0553 ± 0.05
160 | AACGCGTA | 0.138 ± 0.0028
161 | AGAACACG | 0.167 ± 0.045
